From article PMC6919601, “Identification of Plasmodium dipeptidyl aminopeptidase allosteric inhibitors by high throughput screening” (PLoS ONE, 2019)
Where “and” joins values, the source holds several entries; their conditions need not be identical. Equal values may be shown once. The campaign covered roughly 110,000 compounds. About 230 (0.21%) showed an effect of 50% or more. Some of the results follow.

target: DPAP1 (Plasmodium falciparum, UniProt Q8IIJ9); assay: primary screen, percent inhibition; read by cleavage of a fluorogenic dipeptide substrate; higher = more effect of the substance; design: species or system P. falciparum D10 trophozoite lysates; single well
Sequence (Q8IIJ9 whole entry, looked up): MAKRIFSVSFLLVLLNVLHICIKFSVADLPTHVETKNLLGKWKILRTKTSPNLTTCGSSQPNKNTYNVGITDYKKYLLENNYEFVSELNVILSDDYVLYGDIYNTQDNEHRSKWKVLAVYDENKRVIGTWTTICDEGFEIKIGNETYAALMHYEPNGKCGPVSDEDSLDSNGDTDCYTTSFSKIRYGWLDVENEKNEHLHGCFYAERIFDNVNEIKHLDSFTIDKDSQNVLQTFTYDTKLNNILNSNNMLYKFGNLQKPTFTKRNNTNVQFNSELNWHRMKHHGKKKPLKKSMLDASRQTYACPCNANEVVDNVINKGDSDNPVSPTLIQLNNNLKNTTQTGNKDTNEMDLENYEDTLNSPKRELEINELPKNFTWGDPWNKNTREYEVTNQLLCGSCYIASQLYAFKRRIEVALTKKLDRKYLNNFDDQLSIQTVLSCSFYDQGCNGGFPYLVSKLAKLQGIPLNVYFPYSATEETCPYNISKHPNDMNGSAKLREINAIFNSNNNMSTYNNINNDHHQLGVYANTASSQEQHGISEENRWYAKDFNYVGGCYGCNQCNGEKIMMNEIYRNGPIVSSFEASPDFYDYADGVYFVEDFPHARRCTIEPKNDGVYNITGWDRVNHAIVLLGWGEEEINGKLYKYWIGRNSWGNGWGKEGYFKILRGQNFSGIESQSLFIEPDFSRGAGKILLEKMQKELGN
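Further: 30 min substrate incubation versus DMSO and 10 µM JCP410 controls.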

Row | SMILES | % Inhibition @ 10 uM
1 | COc1cc(-c2cc(NC(=O)Cn3ncc4c3-c3ccccc3OC4)on2)cc(OC)c1OC | -4.21%
2 | CC(C)CN1C(=O)c2ccccc2C(C(=O)N2CCC3(CC2)OCCO3)C1c1cccs1 (centres unmarked) | 1.69%
3 | CCCCNC(=O)Nc1cnn(Cc2ccc(F)cc2)c1 | -10.7%
4 | CC(=O)Nc1c(C(=O)c2ccccc2)oc2ccccc12 | 3.34%
5 | CC(CCCN1CCCCC1)Sc1ccc(O)cc1 (centres unmarked) | -3.15% and -3.94%
6 | NC(=O)COc1ccc(/C=C2\C(=O)ON=C2c2ccccc2)cc1 | -4.35%
7 | O=C(NC1CCCCCC1)C1CCCN(S(=O)(=O)c2cccs2)C1 (centres unmarked) | -3.21%
8 | O=c1cccc2n1C[C@H]1C[C@@H]2CN(Cc2ccc(Cl)c(Cl)c2)C1 | 0.132%
9 | CCS(=O)(=O)N1CCC(c2nc3ccccc3s2)CC1 | 3.88%
10 | O=C(Nc1cccc(NC(=O)c2cccc3ccccc23)c1)c1ccco1 | 2.7%
11 | Oc1cccc(CN2CCN(C/C=C/c3ccccc3)CC2)c1 | 2.31%
12 | COc1ccccc1[C@@H](C)C[C@H](NC(=O)OCC1c2ccccc2-c2ccccc21)C(=O)NCC#N | -6.56%
13 | Cc1ccc(Cn2c(C)c3cnn(CC(=O)NCCN4CCOCC4)c(=O)c3c2C)cc1 | 2.84%
14 | COc1ccc(N(CC(=O)Nc2ccc(OC)cc2OC)S(C)(=O)=O)cc1 | 1.05%
15 | CC(=O)Nc1ccc(C2C(C#N)=C(N)Oc3[nH]nc(-c4ccc(Br)cc4)c32)cc1 (centres unmarked) | -8.6%
16 | O=C(O)c1ccccc1C(=O)N1CCCc2ccccc21 | 14.9%
17 | O=C(O)c1nn(-c2ccccc2)c(O)c1/C=C1\C=Nc2ccccc21 | 8.63%
18 | O=C(c1ccc(Cl)cc1)c1ccc(CSCc2ccco2)o1 | 0.895%
19 | COc1ccc(C2C(C#N)=C(N)OC3=C2C(=O)CC(C)(C)C3)c(OC)c1 (centres unmarked) | 6.08%
20 | CCOc1ccc(NC(=O)CSc2ncc(-c3ccccc3)n2C)cc1 | -0.99%
21 | Cc1ccc(/C=C2\C(=N)N3N=C(N4CCCCC4)SC3=NC2=O)cc1 | 0.0579%
22 | CCCNC(=O)c1[nH]c2cc(OC)ccc2c1Sc1ccccc1 | -0.229%
23 | COc1cc(C2C(C#N)=C(N)N(c3ccccc3)C3=C2C(=O)CC(C)(C)C3)cc(OC)c1OC (centres unmarked) | -6.08%
24 | Cc1coc2c1c(C)cc1oc(=O)c(CC(=O)NCCc3ccccc3)c(C)c12 | 0.685%
25 | FC(F)(F)COc1nc(N2CCCCC2)nc(N2CCOCC2)n1 | 4.22%

Row | SMILES | % Inhibition @ 10 uM
26 | CCOC(=O)C1=C(C)N(CCOC)C(=O)/C1=C\c1cc(Br)ccc1OC | 10.9%
27 | Cc1nc2c3ccccc3n3c(CCCC(=O)NC4CCCCC4)nnc3n2n1 | -4.69%
28 | CCOC(=O)c1sc(-c2ccccc2)c(C#N)c1C | 2.7%
29 | Cc1ccc2c(=O)c(C(=O)c3ccccc3)cn(CC(=O)NCc3ccco3)c2n1 | 1.48%
30 | CCN1CCN(c2cc(C)nc3c(-c4ccccc4OC)c(C)nn23)CC1 | 0.238%
31 | Fc1ccc(N2CCN(Cc3ccc(-c4ccccc4)cc3)CC2)cc1 | -1.86%
32 | Cc1ccc(/C=C/C(=O)NCCN2CCC(N(C)C3CCCCC3C)CC2)cc1 (centres unmarked) | 0.689%
33 | O=C1NC(Nc2cccc(C(=O)O)c2)=N/C1=C\c1cccs1 | -1.84% and 2.84%
34 | COc1ccc([C@H]2NCC[C@@]3(O)CCCC[C@H]23)cc1OC | -3.55%
35 | Cc1cc(/C=C2\C(=N)N3N=C(N4CCOCC4)SC3=NC2=O)c(C)n1-c1ccccc1F | 0.0579%
36 | O=C(O)CSc1ccc2ccccc2c1 | -10.2%
37 | COC(=O)NCC12CC3CC(CC(C3)C1)C2 | -0.239%
38 | Cc1cc2c(n1-c1ccc(C(=O)NCc3cccnc3)cc1)CCC(C)C2 (centres unmarked) | -3.6%
39 | COc1ccc(C2C(C(=O)c3ccc4c(c3)OCCO4)=C(O)C(=O)N2CCN(C)C)c(OC)c1 (centres unmarked) | -2.84%
40 | Cn1cnc2c(=O)oc3ccc(S(=O)(=O)NCCc4ccc(Cl)cc4)cc3c21 | -6.5%
41 | CCCN1CC2=C(N=C(S)NC2c2ccccc2)/C(=C/c2ccccc2)C1 (centres unmarked) | -5.51%
42 | O=C(Nc1cccc(F)c1)C12CC3CC(CC(C3)C1)C2 | -1.59%
43 | COc1ccc(N2CCN(C(=O)CN(c3ccccc3Cl)S(C)(=O)=O)CC2)cc1 | -2.74%
44 | CCCN1CCC(NCCN2CCOCC2)CC1 | 5.03%
45 | CCOCCCNC(=O)CCc1c(C)nc2c3c(C)cc(C)nc3nn2c1C | -2.88%
46 | Clc1ccc(OCCCN2CCOCC2)cc1 | -0.351%
47 | COC(=O)c1sc(N2C(=O)c3oc4ccccc4c(=O)c3C2c2ccccc2F)nc1C (centres unmarked) | 6.78%
48 | CCc1ccc(NC2=NC(=O)C(CC(=O)Nc3ccccc3OC)S2)cc1 (centres unmarked) | -2.8%
49 | CC(C)CNC(=O)CCCOc1ccc(Cl)cc1Cl | 3.48%
50 | C#CCOc1ccc(C2C3=C(CCCC3=O)N(CC(=O)O)C3=C2C(=O)CCC3)cc1OCC | -3.39%

Row | SMILES | % Inhibition @ 10 uM
51 | COc1ccc(N(CC(=O)NC(C)c2ccccc2)S(C)(=O)=O)cc1 (centres unmarked) | 1.52%
52 | CCOC(=O)c1ccc(NC(=O)c2ccco2)cc1 | -7.42%
53 | CSc1nc(N)nc2sc(C(=O)C34CC5CC(CC(C5)C3)C4)c(N)c12 | 4.97%
54 | CCOc1ccc2[nH]c(SCC(=O)N3CCN(C(=O)c4ccc(C)cc4)C3)nc2c1 | -5.38%
55 | O=C(c1cnn(-c2ccccc2)c1-n1cccc1)N1CCN(Cc2ccccc2)CC1 | -5.43%
56 | NC(=O)C1(N2CCCCC2)CCN(C(=O)NC23CC4CC(CC(C4)C2)C3)CC1 | 1.61%
57 | CCOC(=O)c1c(C)n(CCO)c2cc(O)cc(C)c12 | -5.11%
58 | O=C(O)CCCCCNC(=O)/C(=C\c1ccco1)NC(=O)c1ccco1 | 14.1%
59 | Cc1ccnc(NC(=O)C(CCS(C)(=O)=O)N2Cc3ccccc3C2=O)c1 (centres unmarked) | 6.51%
60 | CCCN1C(=O)c2cc(C(=O)NC3CCCCCC3)ccc2C1O (centres unmarked) | -0.942%
61 | CCCCN(CC)CCNC(=O)c1cc2c(O)nc3ccc(C)cc3c2s1 | 10.2%
62 | Cn1c2c(s/c1=N\C(=O)c1ccco1)CCc1ccccc1-2 | 3.49%
63 | O=C(Nc1sc2c(c1C(=O)NCC1CCCO1)CCC2)c1cccs1 (centres unmarked) | -2.12%
64 | NC(=O)C1CCN(C(=O)CCCn2sc3ccccc3c2=O)CC1 | 0.39%
65 | CCc1c(-c2ccccc2)n(CCc2ccc(OC)c(OC)c2)c2nc3c(c(=O)n(C)c(=O)n3C)n12 | -4.59%
66 | OC(CN1CCC(O)(c2ccc(Cl)cc2)CC1)c1ccc(F)cc1 (centres unmarked) | -2.76%
67 | c1coc(CN2CCc3ccccc3C2)c1 | 6.18%
68 | COc1ccc(S(=O)(=O)N2CCOCC2)cc1-c1nnc2c3ccccc3c(C)nn12 | -4.78%
69 | O=C1c2cccc(Cl)c2C(=O)N1c1ccccn1 | -12.2%
70 | O=C(COc1ccc(Cl)cc1Cl)NCc1ccc(Cl)cc1 | 0.52%
71 | COc1ccc(/C=C2N=C(/C=C/c3ccc(Cl)cc3)OC/2=O)c(OC)c1 | -6.82%
72 | COc1ccc(-n2nc3c(N4CCCC(C(=O)NCCN(C)C)C4)nnc(C)c3c2C)cc1 (centres unmarked) | 3.91%
73 | CCOc1cc(-c2cc(=O)c3ccccc3o2)ccc1O | 1.81%
74 | Cc1ccc(-n2ncc3c(O)nc(SCC(=O)N4CCC(C)CC4)nc32)cc1 | -3.35%
75 | CC(C)(C)c1cc(Br)ccc1OCC(=O)Nc1ccc(S(N)(=O)=O)cc1 | 1.87%

Row | SMILES | % Inhibition @ 10 uM
76 | O=C(NCCCO)C1CC=CCC1C(=O)Nc1cccc2ccccc12 (centres unmarked) | -1.74%
77 | COc1ccc(OC)c(C2NC(C(=O)O)Cc3c2[nH]c2ccccc32)c1 (centres unmarked) | 1.45%
78 | CC(Oc1ccccc1)C(=O)Nc1nc2nc(-c3ccccc3)cc(O)n2n1 (centres unmarked) | 8.16%
79 | O=C(c1ccc(F)cc1)c1oc2ccccc2c1NC(=O)C1COc2ccccc2O1 (centres unmarked) | 0.414%
80 | C=CCn1c(Cc2ccccc2)nc2c(cnn2-c2ccccc2)c1=O | 1.88%
81 | CCn1cc(C(=O)NCc2ccccc2)cn1 | 3.9%
82 | CN(C)c1ccc(NC(=O)c2nn(C)cc2Br)cc1 | 1.34%
83 | O=C(COc1ccccc1Cl)Nc1ccc(S(=O)(=O)N2CCOCC2)cc1 | 0.889%
84 | O=C(NCC1CCCO1)c1ccc(Br)o1 (centres unmarked) | -3.63%
85 | CC(CC(C)C(=O)Nc1ccccc1C(C)(C)C)C(=O)O (centres unmarked) | -4.49%
86 | Cc1ccc2[nH]c(SCC(=O)Nc3ccccc3C)nc2c1 | -1.28%
87 | O=S(=O)(c1ccccc1)c1ccccc1C(O)(c1ccccc1)c1ccccc1 | -0.693%
88 | O=C(Nc1nc2ccc(Cl)cc2s1)C1CCCN1S(=O)(=O)c1cccc2nsnc12 (centres unmarked) | -2.25%
89 | COC(=O)c1ccccc1NC(=O)C1CCN(S(C)(=O)=O)CC1 | 3.24%
90 | COc1ccc(-c2csc(/C(C#N)=C/c3ccc(Cl)cc3)n2)cc1 | 7.59%
91 | CC1(C)CC(=O)C2=C(C1)NC(=O)CC2c1cccc(C(F)(F)F)c1 (centres unmarked) | -3.21%
92 | O=C(NCc1ccc2c(c1)OCO2)c1nc(SCc2ccc(F)cc2)ncc1Cl | -8.39%
93 | Cc1nn(-c2ccccc2)c2c1C(c1ccc(Cl)cc1)SCC(=O)N2 (centres unmarked) | -10.1%
94 | O=C(NCc1ccco1)c1ccc(C(=O)NCc2ccco2)cc1 | -1.43%
95 | O=C(/C=C/c1ccccc1Cl)NCc1nc2ccccc2[nH]1 | 11.6%
96 | Cc1ccc(CN(CC(=O)Nc2ccccc2Cl)S(=O)(=O)c2ccccc2)cc1 | 0.163%
97 | O=C(O)c1cc(-c2ccccc2)n(-c2ccccc2Cl)n1 | -11.3%
98 | COc1ccc(Cl)cc1C(=O)Nc1c2c(nn1-c1cccc(C)c1C)CS(=O)(=O)C2 | 5.21%
